{"source": "PubChem BioAssay AID588342", "about": "(National Center for Advancing Translational Sciences (NCATS), 2011)", "note": "The campaign covered roughly 360,000 compounds. About 25,000 (6.9%) were called active. Inconclusive means that the source gave no clear call. Such entries were picked first, then a sample of the others. The call rests on the fitted dose curve; in most records, active means well fitted inhibition curve with a large enough effect; inconclusive means small, poorly fitted or top-dose-only effect; inactive means flat fitted curve, though single readings scatter. A potency beside an inconclusive call is a rough fit, not a confirmed value. Potency means the concentration at half of the fitted maximal effect; tags describe the fitted curve by direction and shape."}
{"molecular_target": "Luciferin 4-monooxygenase (Photinus pyralis) (UniProt P08659)", "sequence (P08659 whole entry, looked up)": "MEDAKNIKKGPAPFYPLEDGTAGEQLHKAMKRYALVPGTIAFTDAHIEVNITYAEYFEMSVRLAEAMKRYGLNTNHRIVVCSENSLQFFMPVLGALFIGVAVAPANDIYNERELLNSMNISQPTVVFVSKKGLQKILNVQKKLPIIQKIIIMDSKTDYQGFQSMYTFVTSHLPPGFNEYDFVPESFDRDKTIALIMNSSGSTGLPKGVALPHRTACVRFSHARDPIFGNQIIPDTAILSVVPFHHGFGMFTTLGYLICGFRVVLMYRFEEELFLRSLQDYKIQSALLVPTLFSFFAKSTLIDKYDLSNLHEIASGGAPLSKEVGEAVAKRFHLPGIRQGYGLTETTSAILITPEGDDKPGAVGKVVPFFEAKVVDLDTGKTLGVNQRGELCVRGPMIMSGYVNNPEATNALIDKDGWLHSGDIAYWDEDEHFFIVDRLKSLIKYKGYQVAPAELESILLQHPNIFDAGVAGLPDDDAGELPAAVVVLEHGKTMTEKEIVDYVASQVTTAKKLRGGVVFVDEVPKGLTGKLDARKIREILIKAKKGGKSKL", "test": "qHTS profiling assay for firefly luciferase inhibitor/activator using purifed enzyme and Km concentrations of substrates (counterscreen for miR-21 project); further: nearly all actives have a fitted effect of over 55% in size;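 on activity change, negative = inhibition: plate controls were vehicle for no effect and reference inhibitor for full effect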", "details": "purified FLuc, luminescence inhibition; series mostly up to 57.5 µM; activity change, negative = inhibition: at the top concentration", "how_it_was_run": "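Purified P. pyralis luciferase (10nM final) with 10uM D-luciferin and 10uM ATP (Km levels) in 50mM Tris acetate pH 7.5, 10mM Mg acetate, 0.01% Tween-20, 0.05% BSA; qHTS 6-point titration, ~60 µM downward; luminescence read.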"}
{"smiles": "COC(=O)n1c(=S)oc2cc(Cl)ccc21", "Potency": "inconclusive: 21.3 µM [inhibitor, partial curve, poor fit]"}
{"smiles": "COc1cccc(NC(=O)/C(C#N)=C/c2c(C)n(Cc3ccccc3)c3ccccc23)c1", "activity change, negative = inhibition": "inactive: -18.1%"}
{"smiles": "CCOc1ccc(NC(=O)CCc2c(C)nc3nc(-c4cc(OC)cc(OC)c4)nn3c2C)cc1", "activity change, negative = inhibition": "inactive: -9.44%"}
{"smiles": "CCOC(=O)c1c(C)[nH]c(C)c1S(=O)(=O)N1CCCC(C(=O)Nc2cccc(CC)c2)C1", "note": "(stereo unspecified)", "activity change, negative = inhibition": "inactive: -3.53%"}
{"smiles": "O=C(CSc1nc2[nH]c(=O)cc(O)c2s1)Nc1ccc(Cl)c(C(F)(F)F)c1", "Potency": "inconclusive: 30.1 µM [inhibitor, partial curve, poor fit]"}
{"smiles": "CC(=O)N1CCc2cc(Br)cc(S(=O)(=O)NCCc3cccc(C)c3)c21", "activity change, negative = inhibition": "inactive: -2.14%"}
{"smiles": "Cc1cccc(-c2nc3cc([N+](=O)[O-])ccc3o2)c1", "Potency": "active: 1.69 µM"}
{"smiles": "CC1CCc2c(sc3nc(CN4CCOCC4)nc(Sc4ccccc4)c23)C1", "note": "(stereo unspecified)", "Potency": "inconclusive: 21.3 µM [inhibitor, partial curve, poor fit]"}
{"smiles": "Cc1ccc(-c2c3c(=O)n(C)c(=O)n(C)c3c3cnc4ccccc4n23)cc1", "activity change, negative = inhibition": "inactive: -2.44%"}
{"smiles": "Cc1ccc(S(=O)(=O)CC(=O)Nc2nc3c(C)cccc3s2)cc1", "Potency": "inconclusive: 5.36 µM [inhibitor, partial curve, poor fit]"}
{"smiles": "COc1ccccc1NC(=O)CSc1nc(=O)n(Cc2ccncc2)c2c1CCCC2", "activity change, negative = inhibition": "inactive: 3.77%"}
{"smiles": "COc1ccc(N2C(=O)C3C4C=CC(C5CC45)C3C2=O)c([N+](=O)[O-])c1", "note": "(stereo unspecified)", "Potency": "inconclusive: 21.3 µM [inhibitor, single point]"}
{"smiles": "CSc1ccc(/C=C/c2nc3ccccc3n2S(=O)(=O)c2ccc(Br)cc2)cc1", "Potency": "active: 0.0426 µM"}
{"smiles": "COc1cc(C)c(C(=O)Oc2cc(C)c(C(=O)O)c(O)c2C)c(OC)c1C", "Potency": "inconclusive: 37.9 µM [inhibitor, partial curve, poor fit]"}
{"smiles": "O=C(Nc1ccc(-c2nc3cccnc3s2)cc1)C1CCCO1", "note": "(stereo unspecified)", "Potency": "active: 0.601 µM"}
{"smiles": "COc1ccc(N=C2NC(=O)S/C2=C\\c2ccc(N(C)C)cc2)cc1", "Potency": "active: 21.3 µM"}
{"smiles": "Cc1csc(NC(=O)c2cnccn2)n1", "Potency": "inconclusive: 23.9 µM [inhibitor, partial curve, poor fit]"}
{"smiles": "O=C(NC1CCCC1)c1ccccc1OCc1ccccc1", "Potency": "inconclusive: 37.9 µM [inhibitor, partial curve, poor fit]"}
{"smiles": "Cc1cc(C(=O)Nc2nnc(C3CCCCC3)s2)no1", "Potency": "inconclusive: 26.9 µM [inhibitor, single point]"}
{"smiles": "CC1CCN(c2nc3c(c(=O)n(C)c(=O)n3C)n2CCSc2ncccn2)CC1", "activity change, negative = inhibition": "inactive: 4.25%"}
{"smiles": "CC1CCN(C(=O)COC(=O)c2n[nH]c3ccccc23)CC1", "Potency": "inconclusive: 13.5 µM [inhibitor, partial curve, poor fit]"}
{"smiles": "CCOC(=O)c1cccc(NS(=O)(=O)c2ccc(-c3coc(C)n3)cc2)c1", "Potency": "inconclusive: 37.9 µM [inhibitor, partial curve, poor fit]"}
{"smiles": "O=C(COc1ccccc1/C=C\\c1[nH]c(=O)[nH]c(=O)c1[N+](=O)[O-])Nc1ccccc1", "Potency": "inconclusive: 16.9 µM [inhibitor, partial curve]"}
{"smiles": "Cc1ccc(C(=O)NC(=S)N(C)C2CCCCC2)cc1", "Potency": "inconclusive: 30.1 µM [inhibitor, single point]"}
{"smiles": "O=C1C=C(c2ccc3c(c2)OCCO3)C[C@@H](c2ccc(F)cc2)C1", "Potency": "inconclusive: 30.1 µM [inhibitor, partial curve, poor fit]"}
{"smiles": "O=C(Nc1ccc(Cl)cc1)N1CCC(c2nc(-c3cccs3)no2)CC1", "Potency": "inconclusive: 37.9 µM [inhibitor, partial curve, poor fit]"}
{"smiles": "CCOC(=O)c1c(NC(=O)C2CCCCC2C(=O)O)sc2c1CCCCC2", "note": "(stereo unspecified)", "Potency": "inconclusive: 30.1 µM [inhibitor, partial curve, poor fit]"}
{"smiles": "CN(C(=O)c1ccncc1)c1nnc(-c2ccccn2)s1", "Potency": "active: 16.9 µM"}
{"smiles": "CCc1cccc(N2C(=O)CS(=O)(=O)C23C(=O)N(Cc2ccccc2)c2ccc(C)cc23)c1", "note": "(stereo unspecified)", "activity change, negative = inhibition": "inactive: 1.94%"}
{"smiles": "O=C(COc1ccccc1Cl)Nc1cccc(S(=O)(=O)NC2=NCCCCC2)c1", "Potency": "active: 19 µM"}
{"smiles": "CC(=O)NC1(NC(C)=O)CCN(C)CC1", "activity change, negative = inhibition": "inactive: -1.01%"}
{"smiles": "O=c1[nH]c2ccccc2cc1-c1noc(-c2cccnc2)n1", "Potency": "inconclusive: 23.9 µM [inhibitor, partial curve, poor fit]"}
{"smiles": "CCOC(=O)N/N=C/c1c[nH]c2ccccc12", "Potency": "inconclusive: 37.9 µM [inhibitor, partial curve, poor fit]"}
{"smiles": "CC(NC(=O)c1cccc(S(=O)(=O)N2CCN(C)CC2)c1)c1ccc(Cl)cc1Cl", "note": "(stereo unspecified)", "activity change, negative = inhibition": "inactive: -1.02%"}
{"smiles": "Cn1cc(Br)c(C(=O)NNC(=O)c2ccc(Br)cc2)n1", "Potency": "inconclusive: 15.1 µM [inhibitor, partial curve]"}
{"smiles": "COc1cccc(-n2c(CN3CCN(c4ccccc4)CC3)nc3ccc([N+](=O)[O-])cc3c2=O)c1", "activity change, negative = inhibition": "inactive: -0.839%"}
{"smiles": "O=C(CCOc1ccccc1)OCC(=O)c1cc2ccccc2o1", "Potency": "inconclusive: 23.9 µM [inhibitor, single point]"}
{"smiles": "CCOC(=O)c1c(O)c2ccccc2oc1=O", "Potency": "inconclusive: 21.3 µM [inhibitor, partial curve, poor fit]"}
{"smiles": "CSc1ncc(Cl)c(C(=O)C(C#N)c2nc3c(C)cc(C)cc3c(=O)[nH]2)n1", "note": "(stereo unspecified)", "Potency": "inconclusive: 26.9 µM [inhibitor, single point]"}
{"smiles": "CCc1ccc(NC(=O)c2ccc3ncsc3c2)cc1", "Potency": "active: 2.69 µM"}
{"smiles": "CCN(CC)c1ccc(NC(=O)c2cc(OC)cc(OC)c2)c(C)c1", "Potency": "inconclusive: 23.9 µM [inhibitor, partial curve, poor fit]"}
{"smiles": "Cc1ccc(N/N=C/c2c(C)c(C#N)c(=O)n(C)c2O)cc1C", "Potency": "inconclusive: 19 µM [inhibitor, single point]"}
{"smiles": "COc1ccccc1CNc1nc2ccccc2c2nc(-c3cccc(C)c3)nn12", "Potency": "inconclusive: 21.3 µM [inhibitor, partial curve]"}
{"smiles": "COc1cc(/C=C2\\SC(=S)N(C(Cc3ccccc3)C(=O)O)C2=O)ccc1O", "note": "(stereo unspecified)", "Potency": "inconclusive: 23.9 µM [inhibitor, partial curve, poor fit]"}
{"smiles": "COc1ccc(-c2nc3sc(CCNC(=O)C(=O)Nc4cc(F)ccc4F)c(C)n3n2)cc1", "activity change, negative = inhibition": "inactive: -3.9%"}
{"smiles": "COCC(=O)Nc1nc(-c2ccccc2)ns1", "Potency": "inconclusive: 21.3 µM [inhibitor, single point]"}
{"smiles": "COc1ccc2cc3cc(C(=O)N4CCN(c5cccc(C(F)(F)F)c5)CC4)sc3nc2c1", "activity change, negative = inhibition": "inactive: -5.09%"}
{"smiles": "COc1ccc(-n2ccnc2CN2CCCC(CO)(Cc3cccc(OC)c3)C2)cc1", "note": "(stereo unspecified)", "Potency": "active: 23.9 µM"}
{"smiles": "NS(=O)(=O)c1ccc(CCNC(=O)CSc2ccc(Cl)cc2Cl)cc1", "activity change, negative = inhibition": "inactive: -0.876%"}
{"smiles": "O=C(C1CCCCC1)N1CCN(c2ccnc3cc(Cl)ccc23)CC1", "activity change, negative = inhibition": "inactive: -2.45%"}
{"smiles": "O=C(Nc1nc2ccccc2s1)c1ccc(OCC2CCCO2)cc1", "note": "(stereo unspecified)", "Potency": "active: 0.757 µM"}
{"smiles": "CN(C(=O)COC(=O)c1sc2ccccc2c1Cl)C1CCCCC1", "Potency": "inconclusive: 26.9 µM [inhibitor, single point]"}
{"smiles": "CCCn1c(=O)c2c(nc3n2CCS3)n(C)c1=O", "activity change, negative = inhibition": "inactive: -2.63%"}
{"smiles": "CN(C)c1ccc(/C=N/n2c(-c3cccnc3)n[nH]c2=S)cc1", "Potency": "inconclusive: 26.9 µM [inhibitor, single point]"}
{"smiles": "N#Cc1c(Cl)nc2c(c1C#N)CCCC2", "activity change, negative = inhibition": "inactive: -2.4%"}
{"smiles": "O=C(c1cccs1)N1CCCc2cc(NS(=O)(=O)c3cc(F)ccc3F)ccc21", "activity change, negative = inhibition": "inactive: -19.1%"}
{"smiles": "Cc1csc(NC(=O)CCCC(=O)c2ccccc2)n1", "Potency": "inconclusive: 42.6 µM [inhibitor, partial curve, poor fit]"}
{"smiles": "C=CCn1cccc(C(=O)Nc2ccc(F)cc2)c1=O", "Potency": "inconclusive: 19 µM [inhibitor, partial curve]"}
{"smiles": "Cc1cccc(C(=O)Nc2ccc3nc(SCC(=O)N4CCCC4)sc3c2)c1", "Potency": "inconclusive: 23.9 µM [inhibitor, partial curve]"}
{"smiles": "COc1cccc(-n2nnc3c(=O)n(Cc4ccc(Br)cc4)cnc32)c1", "Potency": "inconclusive: 12 µM [inhibitor, partial curve, poor fit]"}
{"smiles": "Cn1cccc1C(=O)NCCc1ccccc1", "Potency": "active: 4.78 µM"}
{"smiles": "Cc1cccc(C(=O)O/N=C/c2c(N3CCOCC3)n(C)c3ccccc23)c1", "Potency": "inconclusive: 37.9 µM [inhibitor, partial curve, poor fit]"}
{"smiles": "COc1n[nH]c(C(=O)Nc2nc3ccccc3s2)c1[N+](=O)[O-]", "Potency": "active: 15.1 µM"}
{"smiles": "C(=N\\N1CCN(Cc2ccccc2)CC1)/c1ccccc1", "Potency": "inconclusive: 23.9 µM [inhibitor, single point]"}
{"smiles": "COc1ccc(-n2cccc2/C=C2\\C(=N)N3N=C(C(C)C)SC3=NC2=O)cc1", "Potency": "inconclusive: 15.1 µM [inhibitor, partial curve]"}
{"smiles": "COc1ccc(C(=O)c2c3ccc(OC)cc3[n+]([O-])n2Cc2ccc(C(N)=O)cc2)cc1", "Potency": "inconclusive: 26.9 µM [inhibitor, partial curve]"}
{"smiles": "COc1ccc(C(=O)NC(=S)NCC2CCCO2)cc1", "note": "(stereo unspecified)", "Potency": "inconclusive: 21.3 µM [inhibitor, partial curve, poor fit]"}
{"smiles": "O=C1/C(=C\\c2ccc([N+](=O)[O-])cc2)CCc2ccccc21", "Potency": "active: 0.0953 µM"}
{"smiles": "CCN(CC)c1ccc(N=Nc2nn(C)c(C)c2[N+](=O)[O-])cc1", "Potency": "active: 1.69 µM"}
{"smiles": "NC(=O)c1ccccc1NC(=O)CCCc1ccccc1", "Potency": "inconclusive: 26.9 µM [inhibitor, partial curve, poor fit]"}
{"smiles": "Cc1nc(-c2ccccc2)sc1C(=O)O", "Potency": "inconclusive: 21.3 µM [inhibitor, single point]"}
